Measurements published in PubChem BioAssay (Tox21).
“And” between values parts separate entries of the source, which are not always exact repeats. Equal values may be shown once. The shares of active, inactive and inconclusive entries below differ from those in the screen. Where the call is inconclusive, the potency comes from a doubtful curve fit. A structure can be active in one record and inactive in another. The source made the active and inactive calls. The call rests on the fitted dose curve; in most records, active means well fitted curve in the direction sought with a large enough effect in the repeat runs; inconclusive means weak or mixed curves; inactive means no such curve, though single readings can be large; an effect the other way counts as inactive or inconclusive.

experiment: A CellTox Green Cytotoxicity Assay to monitor cytotoxicity in HepG2 cells - 24 hour (AID 1224878); conditions: CellTox Green fluorescence; series mostly up to 76.8 µM; further: nearly all actives have a fitted effect of over 45% in size
Outline: (§1)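 Continuous culture of HepG2 cells with a membrane-impermeant DNA dye; rising fluorescence marks dead cells. Compound exposure lasted up to 40 h at 37 C, with reads every 8 h from 0 h.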
Potency means the concentration at half of the fitted maximal effect; tags describe the fitted curve by direction and shape.

Row | SMILES | Potency
1 | CCN(CC)c1c([N+](=O)[O-])cc(C(F)(F)F)c(N)c1[N+](=O)[O-] | inconclusive: 54.9 µM [activator, single point]
2 | C=CCOC(Cn1ccnc1)c1ccc(Cl)cc1Cl (stereo unspecified) | inconclusive: 54.9 µM [activator, single point] and inconclusive: 26.8 µM [activator, single point]
3 | CC[N+]1(C)CCCC1 | inconclusive: 56.3 µM [activator, single point]
4 | C/C(=C\c1ccccc1)[N+](=O)[O-] | inconclusive: 49 µM [activator, partial curve, poor fit]
5 | O=C(N[C@H](c1ccccc1)[C@@H]1CN2CCC1CC2)c1c(Cl)ccc(C(F)(F)F)c1Cl | inconclusive: 62.6 µM [activator, partial curve]
6 | Clc1ccc(CO/N=C(\Cn2ccnc2)c2ccc(Cl)cc2Cl)c(Cl)c1 | inconclusive: 26.8 µM [activator, single point]
7 | COc1cccc(C(=O)NN(C(=O)c2cc(C)cc(C)c2)C(C)(C)C)c1C | active: 0.616 µM
8 | O=C(CCl)C(Cl)Cl | inconclusive: 55.5 µM [activator, single point]
9 | C[C@]12C/C(=C/O)C(=O)C[C@@H]1CC[C@@H]1[C@@H]2CC[C@@]2(C)[C@H]1CC[C@]2(C)O | inconclusive: 55.5 µM [activator, single point]
10 | CCC(=O)C(CC(C)N(C)C)(c1ccccc1)c1ccccc1 (stereo unspecified) | active: 39.1 µM and inconclusive: 48.6 µM [activator, partial curve, poor fit]
11 | O=C(O)C(F)(F)C(F)(F)C(F)(F)C(F)(F)C(F)(F)C(F)(F)C(F)(F)C(F)(F)C(F)(F)C(F)(F)F | inconclusive: 23.2 µM [activator, single point]
12 | ClP(Cl)(Cl)(Cl)Cl | inconclusive: 55.3 µM [activator, single point]
13 | C[C@]12CCC(=O)C=C1CC[C@@H]1[C@@H]2CC[C@@]2(C)[C@H]1CC[C@]2(C)O | inconclusive: 21.3 µM [activator, single point]
14 | O=C(CCl)c1ccccc1 | inconclusive: 54.9 µM [activator, single point]
15 | CN1C[C@H](CNC(=O)OCc2ccccc2)C[C@@H]2c3cccc4c3c(cn4C)C[C@H]21 | active: 26.8 µM

experiment: A CellTox Green Cytotoxicity Assay to monitor cytotoxicity in HepG2 cells - 40 hour (AID 1224879); conditions: CellTox Green fluorescence; series mostly up to 76.8 µM; further: nearly all actives have a fitted effect of over 40% in size
Outline: as §1

Row | SMILES | Potency
16 | CCN(CC)c1c([N+](=O)[O-])cc(C(F)(F)F)c(N)c1[N+](=O)[O-] | inconclusive: 54.9 µM [activator, single point]
17 | C=CCOC(Cn1ccnc1)c1ccc(Cl)cc1Cl (stereo unspecified) | inconclusive: 54.9 µM [activator, single point] and inconclusive: 26.8 µM [activator, single point]
18 | CC[N+]1(C)CCCC1 | inconclusive: 56.3 µM [activator, single point]
19 | C/C(=C\c1ccccc1)[N+](=O)[O-] | inconclusive: 43.6 µM [activator, partial curve, poor fit]
20 | Clc1ccc(CO/N=C(\Cn2ccnc2)c2ccc(Cl)cc2Cl)c(Cl)c1 | active: 26.8 µM
21 | C[C@]12C/C(=C/O)C(=O)C[C@@H]1CC[C@@H]1[C@@H]2CC[C@@]2(C)[C@H]1CC[C@]2(C)O | inconclusive: 49.4 µM [activator, partial curve] and inconclusive: 26.8 µM [activator, single point]
22 | CCC(=O)C(CC(C)N(C)C)(c1ccccc1)c1ccccc1 (stereo unspecified) | inconclusive: 41.9 µM [activator, single point]
23 | O=C(O)C(F)(F)C(F)(F)C(F)(F)C(F)(F)C(F)(F)C(F)(F)C(F)(F)C(F)(F)C(F)(F)C(F)(F)F | inconclusive: 23.2 µM [activator, single point]
24 | ClP(Cl)(Cl)(Cl)Cl | inconclusive: 55.3 µM [activator, single point]
25 | C[C@]12CCC(=O)C=C1CC[C@@H]1[C@@H]2CC[C@@]2(C)[C@H]1CC[C@]2(C)O | active: 19.7 µM and active: 23.9 µM
26 | O=C(CCl)c1ccccc1 | inconclusive: 54.9 µM [activator, single point]

experiment: qHTS RealTime-Glo MT Cell Viability Assay in HEK293 cells - 0 hour (AID 1224880); conditions: RealTime-Glo luminescence; series mostly up to 76.8 µM; further: nearly all actives have a fitted effect of over 45% in size
Outline: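 qHTS format; HEK293 cells with NanoLuc/prosubstrate reagent, 37 C/5% CO2 for 5 h pre-dosing; compounds 23 nL in DMSO; luminescence at each time point reflects viable cells.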

Row | SMILES | Potency
27 | O=S(=O)(O)C(F)(F)C(F)(F)C(F)(F)C(F)(F)F | inconclusive: 23.2 µM [falling, single point]
28 | O=C(N[C@H](c1ccccc1)[C@@H]1CN2CCC1CC2)c1c(Cl)ccc(C(F)(F)F)c1Cl | inconclusive: 22.2 µM [rising, full curve, poor fit]
29 | CCC(=O)C(CC(C)N(C)C)(c1ccccc1)c1ccccc1 (stereo unspecified) | inconclusive: 55.2 µM [rising, partial curve, poor fit]
30 | CC(c1ccccc1)(c1ccc(O)cc1)c1ccc(O)cc1 | inconclusive: 38.9 µM [falling, partial curve]
31 | C[C@]12CCC(=O)C=C1CC[C@@H]1[C@@H]2CC[C@@]2(C)[C@H]1CC[C@]2(C)O | inconclusive: 24.8 µM [falling, full curve]
